PubChem BioAssay AID588855 (National Center for Advancing Translational Sciences (NCATS), 2011)
The campaign covered roughly 410,000 compounds. About 5,000 (1.2%) were called active. Inconclusive results, whose numbers are uncertain, are shown with a selection of clear calls. Calls come from the whole dose curve; as a rule, active = well fitted inhibition curve with a large enough effect; inconclusive = small, poorly fitted or top-dose-only effect; inactive = no such curve, though single readings can be large or run the other way. Potencies of inconclusive entries are doubtful fits and often do not repeat.

Assay: qHTS for Inhibitors of TGF-b; note: nearly all actives have a fitted effect of over 65% in size
Conditions: HepG2 CAGA-GFP TGF-b/SMAD3 reporter, GFP fluorescence, 18 h, TGF-beta stimulated, 500 pg/mL final; series mostly up to 46.1 µM
Procedure, shortened: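 GFP signal (ex488/em500-530) from TGF-beta-stimulated HEPG2 CAGA-GFP cells, 500 pg/mL final, 18 h at 37 degrees C in DMEM plus 1% FBS, normalized to unstimulated and DMSO-stimulated controls.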
Potency is the fitted concentration of half-maximal effect; tags give direction and shape of the fitted curve.

Structure (SMILES)	Potency
COc1ccc(N2CCN(C(=S)Nc3ccc(S(N)(=O)=O)cc3)CC2)cc1	inconclusive: 17.8 µM [inhibitor, single point]
CCCNC(=S)Nc1ccc(CC(=O)OC)cc1	inactive
CCOC(=O)c1cc(S(=O)(=O)N2CCN(c3cccc(C)c3)C(C)C2)[nH]n1 (stereo not given)	inconclusive: 11.2 µM [inhibitor, partial curve]
CC1CCC(C(=O)NC(C(=O)NCCCN2CCOCC2)C(C)C)CC1 (stereo not given)	inconclusive: 0.112 µM [inhibitor, full curve, poor fit]
CCn1c(SCC(=O)N(C)Cc2ccc(OC)c(F)c2)nc2cc(S(N)(=O)=O)ccc21	inactive
COc1ccc(-c2nc3n(c2C)CCC3)cc1	inactive
COC(=O)Nc1ccc2c(c1)N(C(=O)CCCl)c1ccccc1S2	inconclusive: 35.5 µM [inhibitor, single point]
Cc1cccc(CNCc2ccccc2)c1	inconclusive: 0.112 µM [inhibitor, full curve, poor fit]
CN(CC(=O)N1CCCCC1)S(=O)(=O)c1cccc2cccnc12	inconclusive: 6.31 µM [inhibitor, single point]
Cc1ccc(C(=O)c2sc3nc4c(cc3c2N)CCC4)cc1	inactive
O=C(NC(NC(=S)Nc1ccccc1O)C(Cl)(Cl)Cl)c1ccco1 (stereo not given)	inactive
CCC1=Nc2cc(C(=O)NC3CCCC3)ccc2Sc2ccc(Cl)cc21	inconclusive: 7.08 µM [inhibitor, partial curve]
CCCC1CC(C)(c2csc(Nc3ccc(OCC)cc3)n2)OC1=O (stereo not given)	inconclusive: 22.4 µM [inhibitor, single point]
O=C(Nc1ccc(Cl)cc1)Nc1ccccc1CC[N+](=O)[O-]	inactive
COCCNC(=O)C(c1ccc(Cl)cc1)N(C(=O)Cn1nnc2ccccc21)c1cccnc1 (stereo not given)	inconclusive: 35.5 µM [inhibitor, single point]
CCN(CC)CC(=O)Nc1ccc(-c2ccc(NC(=O)CN(CC)CC)c(OC)c2)cc1OC	inactive
O=C(Nc1cccc(S(=O)(=O)N2CCCCCC2)c1)C1CCN(C(=O)c2ccc(Cl)cc2)CC1	inconclusive: 35.5 µM [inhibitor, single point]
CCc1ccccc1NC(=O)c1nnn(CC(=O)Nc2c(C)cc(C)cc2C)c1N	inactive
CCc1nc2c(sc3nc4c(cc32)COC(C)(C)C4)c(=O)n1Cc1ccccc1	inactive
O=C1CCCc2ccccc2N1Cc1ccccc1Cl	inconclusive: 6.31 µM [inhibitor, single point]
CC1C(=O)N(Cc2cn(CC3CCCCC3)nn2)CCS(=O)(=O)N1Cc1ccc(-c2cccc(CO)c2)cc1 (stereo not given)	inconclusive: 11.2 µM [inhibitor, partial curve, poor fit]
CCCCN(CC)Cc1ccc(CNC(=O)Nc2ccc(Cl)cc2)o1	inconclusive: 11.2 µM [inhibitor, partial curve, poor fit]
COc1ccc(N2CCN(CCC(=O)c3ccc4ccccc4c3)CC2)cc1	active: 11.2 µM
COc1ccccc1N1CCN(/N=C/c2ccc(Cl)c([N+](=O)[O-])c2)CC1	inconclusive: 14.1 µM [inhibitor, single point]

Structure (SMILES)	Potency
Cc1cnn(-c2nc(-c3ccccc3)cc(-c3ccccc3)n2)c1	inconclusive: 28.2 µM [inhibitor, single point]
COc1cc(Nc2cccc[n+]2C)cc(OC)c1OC	inactive
COc1cc(/C=N/O)cc(Br)c1OCc1ccc(Cl)cc1	inconclusive: 35.5 µM [inhibitor, single point]
COc1ccc(CCNC(=O)CN(C)S(=O)(=O)c2ccc(OC)cc2)cc1	inactive
CC(C)(C)OC(=O)N1CCC(CC2CC(c3cccc(Br)c3)=NO2)(C(=O)NCC2CCCCC2)CC1 (stereo not given)	inconclusive: 12.6 µM [inhibitor, single point]
CC(C)COc1cccc(C(=O)Nc2cc(S(=O)(=O)N3CCOCC3)ccc2N2CCCC2)c1	inconclusive: 35.5 µM [inhibitor, single point]
CCCNC(=O)C1(C)CCCN(Cc2ccc(-c3ccccc3)cc2)C1 (stereo not given)	inactive
C=CCn1c(SCc2ccccc2)nc(O)cc1=O	inconclusive: 6.31 µM [inhibitor, single point]
COC(=O)c1ccc(NC(=O)c2cc[n+](Cc3ccccc3)cc2)cc1	inactive
COc1ccc(CCN(Cc2ccccn2)C(=S)Nc2ccc(C)cc2)cc1OC	inactive
NC(=O)c1ccc(NC(=O)COC(=O)/C=C/c2cccs2)cc1	inconclusive: 0.708 µM [inhibitor, full curve, poor fit]
OC(CNc1ncnc2sccc12)c1ccccc1 (stereo not given)	inconclusive: 4.47 µM [inhibitor, full curve]
CCc1nnc(NC(=O)CCS(=O)(=O)Cc2ccccc2)s1	inactive
CC1Cc2ccccc2N1C(=O)c1ccc(Br)o1 (stereo not given)	inconclusive: 28.2 µM [inhibitor, single point]
COc1cc(NS(=O)(=O)c2ccc(NC(=O)CCC(=O)O)cc2)nc(OC)n1	inactive
COCCn1c(C)cc(O)c(C(c2ccccc2)N2CCN(c3ccc(F)cc3)CC2)c1=O (stereo not given)	inactive
Cc1ccc(S(=O)(=O)N(CC(=O)Nc2cc(C)ccc2C)C(=O)N2CCN(C)CC2)cc1	inactive
Cc1ccc(N(C)C(=O)Cn2nc(Cc3ccncc3)c3ccccc3c2=O)cc1C	inconclusive: 35.5 µM [inhibitor, single point]
COc1ccc(S(=O)(=O)NCc2ccccn2)cc1Cl	inconclusive: 35.5 µM [inhibitor, single point]
COc1ccccc1OCC(=O)NC1CCSc2ccccc21 (stereo not given)	inactive
CC(OC(=O)c1nc(-c2ccccc2)n(-c2ccccc2)n1)C(=O)Nc1cc(Cl)cc(Cl)c1 (stereo not given)	inconclusive: 20 µM [inhibitor, partial curve, poor fit]
O=c1c2ccccc2nc(COc2ccccc2)n1/N=C/c1ccc(O)cc1O	inconclusive: 11.2 µM [inhibitor, partial curve, poor fit]
Cc1ccc(Cn2c(C(C)Nc3nc(-c4ccc(Cl)cc4)cs3)nc3cc(C(=O)NCCCO)ccc32)cc1 (stereo not given)	inconclusive: 17.8 µM [inhibitor, partial curve, poor fit]
COc1ccc(NCc2nc3ccccc3n2CCOc2ccccc2C)cc1	inconclusive: 17.8 µM [inhibitor, single point]

Structure (SMILES)	Potency
C/C(=N\NC(=O)c1ccc(NS(=O)(=O)c2cccs2)cc1)c1ccc(O)cc1O	inconclusive: 2.24 µM [inhibitor, partial curve, poor fit]
CCn1c2ccccc2c2cc(NC(=O)C(C)OC(=O)c3ccc(NC(=O)CC#N)cc3)ccc21 (stereo not given)	inconclusive: 25.1 µM [inhibitor, single point]
C(#Cc1ccccc1)C[N+]1(CC#Cc2cccc3ccccc23)CCCC1	inconclusive: 7.08 µM [inhibitor, partial curve, poor fit]
CC1=NN(C(=O)Cc2ccccc2)C(O)(c2ccccc2)C1 (stereo not given)	inactive
CC1(C(=O)N2CCC(CC3CC(c4ccc(Cl)cc4)=NO3)(C(=O)NCC3CCCCC3)CC2)CC1 (stereo not given)	inconclusive: 14.1 µM [inhibitor, partial curve, poor fit]
O=C(COc1ccc2c(c1)CCC2)N1CCN(c2cccc(C(F)(F)F)c2)CC1	inconclusive: 28.2 µM [inhibitor, single point]
COc1cc(Cn2c3ccc(NC(=O)NCc4ccc(F)cc4)cc3c(=O)n2C)ccc1F	inconclusive: 15.8 µM [inhibitor, single point]
COc1ccc(S(=O)(=O)N2CCCOC2CNC(=O)C(=O)NCCc2ccco2)cc1C (stereo not given)	inactive
Cc1cc(N2CCN(C)CC2)nc2ccc(NC(=O)CCC(=O)N3CCN(c4ccc([N+](=O)[O-])cc4)CC3)cc12	inconclusive: 35.5 µM [inhibitor, partial curve, poor fit]
CCC(C)[C@H](NS(=O)(=O)c1ccc(F)cc1Br)C(=O)OC (stereo not given in full)	inactive
CC(Cl)OC(=O)Nc1cccc2cccnc12 (stereo not given)	inconclusive: 35.5 µM [inhibitor, single point]
CCCC(=O)N(c1ccc2oc3c(c2c1)CCCC3)S(=O)(=O)c1ccc(CC)cc1	inactive
N#Cc1c(SCc2ccccc2)nc(N2CCOCC2)c2c1CCCC2	inactive
CC(=O)Nc1cnc(-c2ccc(O)cc2C)cn1	inactive
CN(c1ncnc(N)c1[N+](=O)[O-])C1CCCCC1	inconclusive: 15.8 µM [inhibitor, single point]
CCCN(Cc1ccccc1)C(=S)Nc1ccc(SC(F)F)cc1	inconclusive: 25.1 µM [inhibitor, single point]
Cc1cccc(NC(=S)NC2CCSc3ccccc32)c1 (stereo not given)	inconclusive: 20 µM [inhibitor, partial curve, poor fit]
COc1ccc(Nc2cc(C(=O)NCCCN(C)Cc3ccccc3)c3ccccc3n2)cc1OC	inconclusive: 22.4 µM [inhibitor, single point]
FCCCOc1ccc(/C=N/OCc2c(Cl)cccc2Cl)cc1	inactive
COc1cccc(CNC(=O)C(=O)NCC(c2cccs2)S(=O)(=O)c2cccs2)c1 (stereo not given)	inconclusive: 35.5 µM [inhibitor, single point]
COc1cccc(OCc2nc3ccccc3n2Cc2ccccc2)c1	inconclusive: 17.8 µM [inhibitor, single point]
CC(NC(=O)c1cc2cc([N+](=O)[O-])ccc2oc1=O)C1CCCO1 (stereo not given)	inactive
